Assay results taken from PubChem BioAssay AID504444 (National Center for Advancing Translational Sciences (NCATS), 2011).
The campaign covered roughly 360,000 compounds. About 7,500 (2.1%) were called active. About 20% were inconclusive and are not listed. Calls follow the shape of the dose curve; as a rule, active = well fitted inhibition curve with a large enough effect; inconclusive = small, poorly fitted or top-dose-only effect, or effect the other way; inactive = flat fitted curve, though single readings scatter. The entries are a selection whose mix differs from that of the whole data set.

assay: Nrf2 qHTS screen for inhibitors; settings: A549 ARE-Fluc reporter, luciferase luminescence, 18-24 h; series mostly up to 46 µM; activity change, negative = inhibition: at the top concentration; also: nearly all actives have a fitted effect of over 60% in size
Excerpt: NIH Molecular Libraries Probe Production Network [MLPCN]
NIH Chemical Genomics Center [NCGC]
Assay Provider: Shyam Biswal, Johns Hopkins University
Nrf2 is a transcription factor that maintains cellular redox homoestasis and protects cells from xenobiotics. Nrf2 binds to the antioxidant response element (ARE) to induce gene expression of a broad spectrum of genes that encode for antioxidants. […] Finding a small molecule that act as an inhibitor of Nrf2 function would represent a novel therapeutic target that could lead to improvement in survival of patients undergoing chemo- and/or radio- therapy.
This is the Nrf2 activity measured in the luminescent read.
1. Shibata, T., et al., Genetic Alteration of Keap1 Confers Constitutive Nrf2 Activation and Resistance to Chemotherapy in Gallbladder Cancer. Gastroenterology, 2008.
2. Sjoblom, T., et al., The consensus coding sequences of human breast and colorectal cancers. Science, 2006. 314(5797): p. 268-74.
NCGC Assay Protocol Summary:
A concentration-response assay was performed with A549 ARE_Fluc cells which are suspended in 5% FBS OPTI-MEM. Five uL were dispensed into 1536-well white TC-treated plate using the Kalypsys dispenser to achieve a density of 5000 cells/well in all columns except column 1. The plate is incubated at 37deg C at 5% CO2 for 2 hours before 23 nL of compounds are added with the Kalypsys pin tool equipped with a 1,536-pin array containing 10-nL slotted pins (FP1S10, 0.457-mm diameter, 50.8 mm long; V&P Scientific). The control compounds Budesonide and Staurosporine are both added at a concentration of 2mM and Budesonide is also added as a 1:10 titration, starting at 200uM, to achieve dose-response. After an 18-24 hour incubation at 37deg C at 5% CO2, 5ul of medium is added to column 1. Afterwards 1ul of 5x of CellTiter-Fluor (Promega) is added to every well. The plate is then incubated at 37deg C at 5% CO2 for 30 minutes before they are read on the ViewLux (Perkin Elmer) for a fluorescent read Ex=405(10)/Em=525(10) for a 3 second exposure, 2x binning, and high gain. Then 3 uL of 3x BugLite is dispensed into all wells and the plate is incubated at ambient room temperature for 15 minutes. Afterwards another ViewLux read is performed using the clear filter to get a luminescent read with the settings of 40 second exposure, 2x binning, and high gain. Cytotoxicity is assessed through the first fluorescent read and then biochemical activity against Nrf2 is measured in the luminescent read.
% is scaled to controls: 0 for no effect and ±100 for the full control effect; potency is read from the fitted curve at half-maximal effect.

Activity change, negative = inhibition, inactive:
O=C1c2ccccc2NC(c2ccc(O)cc2)N1Cc1ccco1 (centres undefined) -1.81%
COC(=O)C1=C[C@@H](C(=O)OC)[C@@H]2C3=C(C(=O)[C@]2(C)NC(=O)c2ccccc2)[C@H](C)n2c(=O)n(-c4ccccc4)c(=O)n2[C@@H]3C1 2.37%
Cc1ccccc1NC(=O)COC(=O)c1ccc(S(C)(=O)=O)c([N+](=O)[O-])c1 2.12%
CCOC(=O)[C@@H]1[C@H]2COc3cc(OC)ccc3[C@H]2N2C(=O)N(c3cccc(F)c3)C(=O)[C@]12C -18.2%
COc1ccc(S(=O)Cc2ccc(C(=O)N3CCN(c4cccc(C)c4C)CC3)o2)cc1 (centres undefined) -19.4%
CCN1CCN(CCCNC(=O)CS(=O)(=O)Cc2nc(-c3cccc(OC)c3)oc2C)CC1 4.02%
O=C(NCc1ccc(Cl)cc1)c1cc(S(=O)(=O)N2CCCCC2)c[nH]1 -7.44%
Cc1cc2c(cc1S(=O)(=O)NCc1ccccc1Cl)OCCN2C -20.8%
C=C1CC[C@@H]2[C@](C)(CO)[C@H](O)CC[C@@]2(C)[C@@H]1/C=C/C1=CCOC1=O -56.7%
COc1cc(C(=O)NCC(c2cccnc2)N2CCN(c3ccc(F)cc3)CC2)cc(OC)c1OC (centres undefined) -10.7%
CC(C)(C)OC(=O)C[C@@H]1C/C=C\C[C@H](CC(=O)N(CCO)Cc2ccccc2)C(=O)NC[C@@H](c2ccccc2)OC1=O -10.9%
C=CCC[C@@H](Cc1ccc(F)cc1)C(=O)OC[C@@H](C)NC(=O)[C@@H](CC=C)CC(=O)N[C@H](CO)Cc1ccccc1 -24.6%
Cc1ccc(CNC(=O)CCC(=O)N2CC(C)Sc3ccccc32)cc1 (centres undefined) 20.8%
Cc1ccc(NS(=O)(=O)c2ccc3c(c2)NC(=O)CCS3)c(Br)c1 -4.29%
COc1ccccc1N1CCN(CCCNC(=O)Cn2ncc3c([nH]c4ccccc43)c2=O)CC1 -15.1%
C/C=C1\COC(C(=O)NCc2ccncc2)(C(F)(F)F)C=C1C=C1CCCCC1 (centres undefined) -8.7%
COc1cc(NC(=O)CCS(=O)(=O)c2ccc3c(c2)n(C)c(=O)c(=O)n3C)cc(OC)c1 12.2%
CCN(c1ccccc1C)S(=O)(=O)c1nnc(NC(=O)c2ccco2)s1 5.95%
O=C(Cn1cccc1C(=O)c1ccccc1)NCc1ccccc1Cl 83.3%
CCOC(=O)[C@@H]1[C@H]2COc3cc(OC)ccc3[C@@H]2N2C(=O)N(c3ccc(C(F)(F)F)cc3)C(=O)[C@@]12C 4.84%
Cc1ccc(S(=O)(=O)/N=C2/NC(=O)/C(=C/c3ccccc3)S2)cc1 -13.8%
CN(C)c1ccc(-c2cc(C3C4C=CCCC4(C)C(=O)N3Cc3ccccc3)ccc2F)cc1 (centres undefined) -21.9%
Cc1nn(-c2ccccc2)c(N2CCCC2)c1/C=N/n1cnc2scc(-c3ccccc3)c2c1=O -4.11%
O=C(NCCc1ccc(Cl)cc1)c1ccc(CS(=O)Cc2ccccc2Cl)o1 (centres undefined) -11.1%
CCSc1ccc([C@@H]2[C@@H]3C(=O)N(C)C(=O)[C@@H]3[C@]3(C(=O)OC)CCCCN23)cc1 -20.6%
Cc1c(Cl)cccc1Nc1ncccc1C(=O)O 23%
O=C(NCc1cccnc1)/C(=C/c1ccc(-c2cccc(Cl)c2)o1)S(=O)(=O)c1ccccc1 12.5%
C=CC[C@@H](CC(=O)N[C@@H](CO)Cc1ccccc1)C(=O)N[C@H](COC(=O)[C@@H](CC=C)CC(=O)OC(C)(C)C)Cc1ccccc1 0.939%
CC(CNS(=O)(=O)c1ccc2c(c1)CC(=O)N2C)c1ccccc1 (centres undefined) 9.98%
Cc1cc(C)c2oc(C(=O)Nc3ccc(S(=O)(=O)N4CCC(C)CC4)cc3)cc(=O)c2c1 -27.6%
C[C@H](NC(=O)c1nc[nH]c1C(=O)N1CCN(c2ccccc2)CC1)c1ccccc1 -1.39%
CCc1cc(C(N)=S)ccn1 0.309%
OCC[C@@H]1C[C@@H](O)[C@H](O)[C@@]2(Cc3ccccc3CO2)O1 12.6%
COc1ccc(NC(=O)C2CCCN(S(=O)(=O)c3ccc4c(c3)oc(=O)n4C)C2)c(OC)c1 (centres undefined) -14.9%
CCc1ccc(NS(=O)(=O)c2c(C)nc3sc(CC)nn3c2=O)cc1 -2.98%
CCOC(=O)/C(=C\C=C1/Sc2cc(OCC)c(OCC)cc2N1CC)C(C)=O -22.9%
C[C@H](CO)N1C[C@H](C)[C@@H](CN(C)S(=O)(=O)c2ccccc2)Oc2ccc(NC(=O)C3CCCCC3)cc2C1=O 6.33%

Potency, active:
CCC(C)N(C(=O)CSc1nc(-c2cccs2)nc2ccccc12)C1CCS(=O)(=O)C1 (centres undefined) 8.2 µM
CC(C)(C)c1nc(N2CCN(C(=O)c3ccco3)CC2)c2nnn(Cc3ccccc3)c2n1 8.2 µM
CCOC(=O)c1sc(NC(=O)c2cc(-c3ccccc3)nc3ccccc23)c(C#N)c1C 4.61 µM
O=C(c1cc(S(=O)(=O)N2CCN(c3ccccc3)CC2)ccc1Cl)N1CCCC(C(F)(F)F)C1 (centres undefined) 4.61 µM
COc1ccc(OC)c(-c2nnc3n2N=C(c2ccc(OC)c(OCC4CC4)c2)CS3)c1 14.6 µM
CC(=O)c1cn(CCOc2cc(C)ccc2C)c2ccccc12 6.51 µM
Cc1ccc(-c2nnc(-c3ccc(NC(=O)Cc4cccs4)cc3)o2)cc1 9.2 µM
